Data: US20100074867A1, “P1-NONEPIMERIZABLE KETOAMIDE INHIBITORS OF HCV NS3 PROTEASE” (Schering Corporation Patent Department, K-6-1; 1990, priority 2007, published 2010)

Target: HCV NS3/NS4A protease (strain 1a) (Hepatitis C virus genotype 1a, UniProt P27958)
Test: HCV continuous spectrophotometric protease assay
Type: biochemical
Settings: ranges of Ki* values in nM, read-out: Ki*
Source text: Spectrophotometric Assay Spectrophotometric assay for the HCV serine protease can be performed on the inventive compounds by following the procedure described by R. Zhang et al, Analytical Biochemistry, 270 (1999) 268-275, the disclosure of which, is incorporated herein by reference. The assay based on the proteolysis of chromogenic ester substrates is suitable for the continuous monitoring of HCV NS3 protease activity. The substrates are derived from the P side of the NS5A-NS5B junction sequence (Ac-DTEDVVX(Nva), where X=A or P) whose C-terminal carboxyl groups are esterified with one of four different chromophoric alcohols (3- or 4-nitrophenol, 7-hydroxy-4-methyl-coumarin, or 4-phenylazophenol). Illustrated below are the synthesis, characterization and application of these novel spectrophotometric ester substrates to high throughput screening and detailed kinetic evaluation of HCV NS3 protease inhibitors.
• Materials: Chemical reagents for assay related buffers are obtained from Sigma Chemical Company (St. Louis, Mo.). Reagents for peptide synthesis were from Aldrich Chemicals, Novabiochem (San Diego, Calif.), Applied Biosystems (Foster City, Calif.) and Perseptive Biosystems (Framingham, Mass.). Peptides are synthesized manually or on an automated ABI model 431A synthesizer (from Applied Biosystems). UV/VIS Spectrometer model LAMBDA 12 was from Perkin Elmer (Norwalk, Conn.) and 96-well UV plates were obtained from Corning (Corning, N.Y.). The prewarming block can be from USA Scientific (Ocala, Fla.) and the 96-well plate vortexer is from Labline Instruments (Melrose Park, Ill.). A Spectramax Plus microtiter plate reader with monochrometer is obtained from Molecular Devices (Sunnyvale, Calif.). […] Protein concentrations are determined by the Biorad dye method using recombinant HCV protease standards previously quantified by amino acid analysis. Prior to assay initiation, the enzyme storage buffer (50 mM sodium phosphate pH 8.0, 300 mM NaCl, 10% glycerol, 0.05% lauryl maltoside and 10 mM DTT) is exchanged for the assay buffer (25 mM MOPS pH 6.5, 300 mM NaCl, 10% glycerol, 0.05% lauryl maltoside, 5 μM EDTA and 5 μM DTT) utilizing a Biorad Bio-Spin P-6 prepacked column. Substrate Synthesis and Purification: The synthesis of the substrates is done as reported by R. Zhang et al, (ibid.) and is initiated by anchoring Fmoc-Nva-OH to 2-chlorotrityl chloride resin using a standard protocol (K. Barlos et al, Int. J. Pept. Protein Res., 37 (1991), 513-520). The peptides are subsequently assembled, using Fmoc chemistry, either manually or on an automatic ABI model 431 peptide synthesizer. […] The combined filtrate and DCM wash is evaporated azeotropically (or repeatedly extracted by aqueous Na2CO3 solution) to remove the acid used in cleavage. The DCM phase is dried over Na2SO4 and evaporated.
The ester substrates are assembled using standard acid-alcohol coupling procedures (K. Holmber et al, Acta Chem. Scand., B33 (1979) 410-412). Peptide fragments are dissolved in anhydrous pyridine (30-60 mg/ml) to which 10 molar equivalents of chromophore and a catalytic amount (0.1 eq.) of para-toluenesulfonic acid (pTSA) were added. Dicyclohexylcarbodiimide (DCC, 3 eq.) is added to initiate the coupling reactions. Product formation is monitored by HPLC and can be found to be complete following 12-72 hour reaction at room temperature. Pyridine solvent is evaporated under vacuum and further removed by azeotropic evaporation with toluene. The peptide ester is deprotected with 95% TFA in DCM for two hours and extracted three times with anhydrous ethyl ether to remove excess chromophore. The deprotected substrate is purified by reversed phase HPLC on a C3 or C8 column with a 30% to 60% acetonitrile gradient (using six column volumes).

| SMILES | Ki |
| --- | --- |
| CCNC(=O)C(=O)[C@@]1(NC(=O)[C@@H]2[C@@H]3[C@H](CN2C(=O)[C@@H](NC(=O)NC2([C@H](C)S(=O)(=O)C(C)(C)C)CCCCC2)C2(C)CCCCC2)C3(C)C)C[C@@H]1CC [65Z] | < 500 nM |
| CCNC(=O)C(=O)[C@]1(NC(=O)[C@@H]2[C@@H]3[C@H](CN2C(=O)[C@@H](NC(=O)NC2([C@H](C)S(=O)(=O)C(C)(C)C)CCCCC2)C2(C)CCCCC2)C3(C)C)C[C@H]1CC [66Z] | 500 to 1000 nM |
| CCNC(=O)C(=O)[C@@]1(NC(=O)[C@@H]2[C@@H]3[C@H](CN2C(=O)[C@@H](NC(=O)NC2([C@@H](C)S(=O)(=O)C(C)(C)C)CCCCC2)C2(C)CCCCC2)C3(C)C)C[C@@H]1CC [67Z] | 5000 to 10000 nM |
| CCNC(=O)C(=O)[C@]1(NC(=O)[C@@H]2[C@@H]3[C@H](CN2C(=O)[C@@H](NC(=O)NC2([C@@H](C)S(=O)(=O)C(C)(C)C)CCCCC2)C2(C)CCCCC2)C3(C)C)C[C@H]1CC [68Z] | 5000 to 10000 nM |
| CC[C@H]1C[C@]1(NC(=O)[C@@H]1[C@@H]2[C@H](CN1C(=O)[C@@H](NC(=O)NC1([C@H](C)S(=O)(=O)C(C)(C)C)CCCCC1)C1(C)CCCCC1)C2(C)C)C(=O)C(=O)NCC1CC1 [69Z] | 500 to 1000 nM |
| CCNC(=O)C(=O)[C@@]1(NC(=O)[C@@H]2[C@@H]3[C@H](CN2C(=O)[C@@H](NC(=O)N[C@H](CN2C(=O)CC(C)(C)CC2=O)C(C)(C)C)C2(C)CCCCC2)C3(C)C)C[C@@H]1CC [74Z] | < 500 nM |
| CCNC(=O)C(=O)[C@]1(NC(=O)[C@@H]2[C@@H]3[C@H](CN2C(=O)[C@@H](NC(=O)N[C@H](CN2C(=O)CC(C)(C)CC2=O)C(C)(C)C)C2(C)CCCCC2)C3(C)C)C[C@H]1CC [75Z] | 1000 to 5000 nM |
| CC[C@H]1C[C@]1(NC(=O)[C@@H]1[C@@H]2[C@H](CN1C(=O)[C@@H](NC(=O)N[C@H](CN1C(=O)CC(C)(C)CC1=O)C(C)(C)C)C1(C)CCCCC1)C2(C)C)C(=O)C(=O)NCC1CC1 [76Z] | < 500 nM |
| CC[C@@H]1C[C@@]1(NC(=O)[C@@H]1[C@@H]2[C@H](CN1C(=O)[C@@H](NC(=O)N[C@H](CN1C(=O)CC(C)(C)CC1=O)C(C)(C)C)C1(C)CCCCC1)C2(C)C)C(=O)C(=O)NCC1CC1 [77Z] | 5000 to 10000 nM |
| CC[C@@H]1C[C@@]1(NC(=O)[C@@H]1[C@@H]2[C@H](CN1C(=O)[C@@H](NC(=O)NC1([C@@H](C)S(=O)(=O)C(C)(C)C)CCCCC1)C1(C)CCCCC1)C2(C)C)C(=O)C(N)=O [81Z] | 1000 to 5000 nM |
| CC[C@@H]1C[C@@]1(NC(=O)[C@@H]1[C@@H]2[C@H](CN1C(=O)[C@@H](NC(=O)N[C@H](CN(C)S(C)(=O)=O)C(C)(C)C)C(C)(C)C)C2(C)C)C(=O)C(=O)NC1CC1 [85Z] | 500 to 1000 nM |
| CC[C@H]1C[C@]1(NC(=O)[C@@H]1[C@@H]2[C@H](CN1C(=O)[C@@H](NC(=O)N[C@H](CN(C)S(C)(=O)=O)C(C)(C)C)C(C)(C)C)C2(C)C)C(=O)C(=O)NC1CC1 [86Z] | < 500 nM |

Second part, the molecule after the results:

| Ki | SMILES |
| --- | --- |
| 500 to 1000 nM | CC[C@@H]1C[C@@]1(NC(=O)[C@@H]1[C@@H]2[C@H](CN1C(=O)[C@@H](NC(=O)NC1([C@@H](C)S(=O)(=O)C(C)(C)C)CCCCC1)C(C)(C)C)C2(C)C)C(=O)C(=O)NCC1CC1 [60Z] |
| < 500 nM | CCNC(=O)C(=O)[C@@]1(NC(=O)[C@@H]2[C@@H]3[C@H](CN2C(=O)[C@@H](NC(=O)NC2([C@H](C)S(=O)(=O)C(C)(C)C)CCCCC2)C(C)(C)C)C3(C)C)C[C@@H]1CC [61Z] |
| < 500 nM | CCNC(=O)C(=O)[C@]1(NC(=O)[C@@H]2[C@@H]3[C@H](CN2C(=O)[C@@H](NC(=O)NC2([C@H](C)S(=O)(=O)C(C)(C)C)CCCCC2)C(C)(C)C)C3(C)C)C[C@H]1CC [62Z] |
| > 10000 nM | CCNC(=O)C(=O)[C@@]1(NC(=O)[C@@H]2[C@@H]3[C@H](CN2C(=O)[C@@H](NC(=O)NC2([C@@H](C)S(=O)(=O)C(C)(C)C)CCCCC2)C(C)(C)C)C3(C)C)C[C@@H]1CC [63Z] |
| < 500 nM | CCNC(=O)C(=O)[C@]1(NC(=O)[C@@H]2[C@@H]3[C@H](CN2C(=O)[C@@H](NC(=O)NC2([C@@H](C)S(=O)(=O)C(C)(C)C)CCCCC2)C(C)(C)C)C3(C)C)C[C@H]1CC [64Z] |
| 1000 to 5000 nM | CC[C@@H]1C[C@@]1(NC(=O)[C@@H]1[C@@H]2[C@H](CN1C(=O)[C@@H](NC(=O)NC1([C@H](C)S(=O)(=O)C(C)(C)C)CCCCC1)C1(C)CCCCC1)C2(C)C)C(=O)C(=O)NCC1CC1 [70Z] |
| 500 to 1000 nM | CC[C@H]1C[C@]1(NC(=O)[C@@H]1[C@@H]2[C@H](CN1C(=O)[C@@H](NC(=O)NC1([C@@H](C)S(=O)(=O)C(C)(C)C)CCCCC1)C1(C)CCCCC1)C2(C)C)C(=O)C(=O)NCC1CC1 [71Z] |
| 1000 to 5000 nM | CC[C@@H]1C[C@@]1(NC(=O)[C@@H]1[C@@H]2[C@H](CN1C(=O)[C@@H](NC(=O)NC1([C@@H](C)S(=O)(=O)C(C)(C)C)CCCCC1)C1(C)CCCCC1)C2(C)C)C(=O)C(=O)NCC1CC1 [72Z] |
| < 500 nM | CC[C@H]1C[C@]1(NC(=O)[C@@H]1[C@@H]2[C@H](CN1C(=O)[C@@H](NC(=O)N[C@H](CN1C(=O)CC(C)(C)CC1=O)C(C)(C)C)C1(C)CCCCC1)C2(C)C)C(=O)C(=O)NC1CC1 [78Z] |
| 500 to 1000 nM | CC[C@@H]1C[C@@]1(NC(=O)[C@@H]1[C@@H]2[C@H](CN1C(=O)[C@@H](NC(=O)N[C@H](CN1C(=O)CC(C)(C)CC1=O)C(C)(C)C)C1(C)CCCCC1)C2(C)C)C(=O)C(=O)NC1CC1 [79Z] |
| < 500 nM | CC[C@@H]1C[C@@]1(NC(=O)[C@@H]1[C@@H]2[C@H](CN1C(=O)[C@@H](NC(=O)NC1([C@@H](C)S(=O)(=O)C(C)(C)C)CCCCC1)C1(C)CCCCC1)C2(C)C)C(=O)C(=O)NC1CC1 [80Z] |
| 500 to 1000 nM | CCC[C@@H]1C[C@@]1(NC(=O)[C@@H]1[C@@H]2[C@H](CN1C(=O)[C@@H](NC(=O)NC1([C@H]3CCCS3(=O)=O)CCCCC1)C(C)(C)C)C2(C)C)C(=O)C(=O)NC1CC1 [82Z] |
| 1000 to 5000 nM | CC[C@@H]1C[C@@]1(NC(=O)[C@@H]1[C@@H]2[C@H](CN1C(=O)[C@@H](NC(=O)NC1([C@H]3CCCS3(=O)=O)CCCCC1)C(C)(C)C)C2(C)C)C(=O)C(N)=O [83Z] |
| 500 to 1000 nM | CC[C@@H]1C[C@@]1(NC(=O)[C@@H]1[C@@H]2[C@H](CN1C(=O)[C@@H](NC(=O)NC1(CS(=O)(=O)C(C)(C)C)CCCCC1)C(C)(C)C)C2(C)C)C(=O)C(=O)NC1CC1 [84Z] |
| < 500 nM | CC[C@H]1C[C@]1(NC(=O)[C@@H]1[C@@H]2[C@H](CN1C(=O)[C@@H](NC(=O)NC1(CS(=O)(=O)C(C)(C)C)CCCCC1)C(C)(C)C)C2(C)C)C(=O)C(=O)NC1CC1 [87Z] |
